Measurements reported in article PMC4336329 (PLoS ONE, 2015).
Screen size: about 310,000 compounds; about 14,000 (4.5%) showed an effect of 50% or more. Effects have a minus sign here. The list shows a part of the results.

Target: human ether-à-go-go-related gene (hERG) potassium channel (human, UniProt Q12809)
Assay: primary screen, population patch clamp on CHO cells stably expressing hERG
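Further: peak tail current of the secondary pulse compared with the same well before compound.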

Sequence of human ether-à-go-go-related gene (hERG) potassium channel (Q12809 whole entry, looked up): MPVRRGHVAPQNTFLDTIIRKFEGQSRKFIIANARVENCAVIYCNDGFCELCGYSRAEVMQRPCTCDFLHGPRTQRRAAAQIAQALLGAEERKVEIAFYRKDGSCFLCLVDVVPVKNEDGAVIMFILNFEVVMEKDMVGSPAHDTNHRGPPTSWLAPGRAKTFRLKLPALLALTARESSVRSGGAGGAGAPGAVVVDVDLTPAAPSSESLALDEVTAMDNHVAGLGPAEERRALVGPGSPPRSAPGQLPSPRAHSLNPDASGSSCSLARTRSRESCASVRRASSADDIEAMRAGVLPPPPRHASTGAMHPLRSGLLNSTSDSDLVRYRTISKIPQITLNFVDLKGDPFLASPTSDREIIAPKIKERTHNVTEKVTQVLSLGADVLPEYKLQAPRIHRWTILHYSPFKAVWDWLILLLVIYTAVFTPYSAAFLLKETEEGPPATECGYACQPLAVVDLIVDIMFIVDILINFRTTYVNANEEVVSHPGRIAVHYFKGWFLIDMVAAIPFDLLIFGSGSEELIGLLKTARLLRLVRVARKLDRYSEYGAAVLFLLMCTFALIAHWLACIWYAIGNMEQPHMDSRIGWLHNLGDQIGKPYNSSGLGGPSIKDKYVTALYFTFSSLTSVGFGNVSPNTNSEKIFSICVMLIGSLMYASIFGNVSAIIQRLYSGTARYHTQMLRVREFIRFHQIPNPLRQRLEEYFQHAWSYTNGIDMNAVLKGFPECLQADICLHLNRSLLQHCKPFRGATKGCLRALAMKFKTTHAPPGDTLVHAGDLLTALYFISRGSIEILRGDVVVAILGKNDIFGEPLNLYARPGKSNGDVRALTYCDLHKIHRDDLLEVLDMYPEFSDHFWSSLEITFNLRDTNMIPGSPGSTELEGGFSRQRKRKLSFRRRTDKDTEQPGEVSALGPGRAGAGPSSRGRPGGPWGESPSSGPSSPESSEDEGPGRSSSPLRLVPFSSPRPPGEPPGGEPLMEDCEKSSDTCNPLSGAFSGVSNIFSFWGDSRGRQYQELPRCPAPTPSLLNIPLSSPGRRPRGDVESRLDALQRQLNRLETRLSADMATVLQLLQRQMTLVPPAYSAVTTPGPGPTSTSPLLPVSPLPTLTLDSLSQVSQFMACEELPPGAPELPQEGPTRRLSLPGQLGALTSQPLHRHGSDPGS

SMILES	hERG current change (%, negative = inhibition) at 10uM
COc1ccc([C@H]2/C=C\CN(S(C)(=O)=O)[C@@H](C)C(=O)N2Cc2ccc(F)cc2)cc1	-13%
Cc1ccccc1NCCC(=O)Nc1ccc(F)cc1	-21.4%
CCCNC(=O)C1CCN(S(=O)(=O)c2ccc3[nH]c(=O)ccc3c2)CC1	8.03%
O=S(=O)(c1ccc2c(c1)OCCCO2)N1CCNCC1	5.64%
Cc1cccc(N2C(=O)CC(N3CCC(c4nc5ccccc5[nH]4)CC3)C2=O)c1 (centres unmarked)	-33.5%
CN(C)c1ccc(/C=C2\SC(=O)N(CC(O)Cn3c4ccccc4c4ccccc43)C2=O)cc1 (centres unmarked)	1.54%
COc1ccc(Cc2nnc(NC(=O)c3c(-c4ccccc4)noc3C)s2)cc1	8.07%
O=c1[nH]c(=O)n(Cc2ccco2)c2c1C(C(F)(F)F)(C(F)(F)F)N=C(C1CCCCC1)N2	7.33%
O=c1cc(O)c2c(=O)n(-c3ccccc3)c3c(c2o1)CCCCCC3	-2.07%
CC(C)(C)NC(=O)CN(C(=O)C1CSC(=O)C1)c1ccccc1F (centres unmarked)	-0.923%
CC(=O)N1CCN=C1SCc1c(F)cccc1Cl	-8.69%
COc1ccc(S(=O)(=O)N2CCN(c3nn(C)c(=O)n(C)c3=O)CC2)cc1	-3.17%
CCN1C(=O)[C@H]2[C@@H](c3ccc(SC4CCCCC4)cc3)N[C@@](CC(C)C)(C(=O)OC)[C@H]2C1=O.O=C(O)C(F)(F)F	-7.5%
CCOC(=O)C(C)n1cnc2scc(-c3ccc(C)cc3)c2c1=O (centres unmarked)	-12.8%
Cc1cc(Oc2nc3ccccn3c(=O)c2/C=C(\C#N)C(=O)NC2CCS(=O)(=O)C2)ccc1Cl (centres unmarked)	-3.75%
CC(=O)Nc1c(OC(C)=O)ccc2c(C)cc(=O)oc12	0.768%
CCOC(=O)C1=C(N)OC2=C(C(=O)CCC2)C1c1cccnc1 (centres unmarked)	6.28%
CC1(C)CC(=O)C2=C(C1)N(C1CCCCC1)C(=O)C2(O)C(F)(F)F (centres unmarked)	9.52%
Cc1ccc(CNC(=O)C2CCC(=O)N2Cc2ccc(F)cc2)cc1 (centres unmarked)	-5.69%
O=C(Cc1c(F)cccc1Cl)N1CCN(C(=O)c2ccco2)CC1	-4.81%
O=C(O)C12C3CCCC1C32c1ccccc1 (centres unmarked)	21.7%
O=C(COc1ccc2c3c(c(=O)oc2c1)CCCC3)N1CCN(c2ccccc2)CC1	5.89%
CC(=O)N1CCN(C(=O)c2ccc(C(=O)c3ccccc3)cc2)CC1	6.39%
O=C(OCc1cccc([N+](=O)[O-])c1)c1cc(=O)[nH]c2ccccc12	20.8%
Cc1ccccc1NC(=O)c1cc(S(=O)(=O)N2CCCCC2)cs1	-6.25%
CC1CCCN(C(=O)/C(=C/c2ccco2)NC(=O)c2ccccc2)C1 (centres unmarked)	-22.8%
Cc1cc2cc3c(cc2nc1SCC(=O)Nc1nc(C)c(C)s1)OCO3	10.5%

SMILES	hERG current change (%, negative = inhibition) at 10uM
Cc1ccc(C(=O)Nc2ccc(O)cc2C(=O)O)cc1C	17.4%
COc1ccc(C(=O)CSc2nnc(CNC(=O)c3ccco3)n2C)cc1	-3.62%
CCCC(=O)Nc1ccc(-c2nc3ncccc3o2)cc1	16.9%
O=C(O)c1ccc(-n2cccc2)cc1O	-5.78%
COc1cc(/C=N/Nc2nc(=O)[nH]nc2C)cc(OC)c1O	11.7%
Nc1nnnn1CC(=O)N/N=C/c1ccccn1	22.7%
Cc1ccc(NC(=O)CN(C)C(=S)NC2CC2)cc1	16.4%
C[C@H](NC(=O)c1nc[nH]c1C(=O)NCc1ccc(CNC(=O)OC(C)(C)C)cc1)c1ccccc1	11.3%
COc1ccc(-n2c(O)c(C(C)=NCCCn3ccnc3)c(=O)[nH]c2=O)cc1	-12.3%
COc1ccc(C(=O)NCc2nnc(SCC(=O)Nc3nc4ccccc4s3)o2)cc1OC	17.8%
O=C(N/N=C/c1ccc(OC(F)F)cc1OC(F)F)c1cccc(S(=O)(=O)N2CCOCC2)c1	-33.1%
O=C(Nc1cccn2ncnc12)c1cccc(C(F)(F)F)c1	5.35%
CCCNC(=O)CC(NS(=O)(=O)c1ccc(NC(C)=O)cc1)C(C)C (centres unmarked)	25.9%
CCOC(=O)C1CCN(C(=S)NC2CC3C=CC2C3)CC1 (centres unmarked)	-54.3%
CCn1c(=O)c(=O)[nH]c2cc(C(=O)Nc3ccc(S(=O)(=O)N4CCCC4)cc3)ccc21	2.83%
COc1ccc(N(CC(=O)N/N=C/c2ccco2)S(=O)(=O)c2ccccc2)cc1Cl	-23.5%
O=C(Nc1cc(C(F)(F)F)ccc1N1CCCC1)C1=COCCO1	-8.16%
CN(C)c1ccc(/C=N/n2c(COc3ccccc3)n[nH]c2=S)cc1	-11.6%
COc1ccc(OC)c(NC(=O)CC(Cc2ccccc2OC)C(=O)O)c1 (centres unmarked)	6.62%
CCC(C)N(C(=O)Cn1nnc2ccccc21)C(C(=O)NCc1ccco1)c1cccc(OC)c1 (centres unmarked)	-6.44%
CCOc1cc(C(=O)Nc2nnc(CC)s2)ccc1OCC(=O)N1CCOCC1	9.38%
CC1CN(S(=O)(=O)c2ccc(C(=O)N(CCCN(C)C)c3nc4c(Cl)cccc4s3)cc2)CC(C)O1.Cl (centres unmarked)	-36.7%
COc1ccc(S(=O)(=O)N2CCCCC2)cc1NC(=O)Cn1cnc2ccccc2c1=O	4.22%
O=C1N/C(=N\S(=O)(=O)Cc2ccccc2)S/C1=C/c1cccc([N+](=O)[O-])c1	23.2%
O=C(Cn1cc([N+](=O)[O-])ccc1=O)N1CCCc2ccccc21	4.68%
Cc1ccc2nc(/N=C(\N)NC(=O)NC3CCCCC3)nc(C)c2c1	-76.4%
